Several values for one entry are separate records, joined by “and”; a condition that tells them apart may be missing. Equal entries are not always repeated. Hit rate of the full screen: of about 340,000 compounds, about 12,000 (3.5%) were called active. The shares of active, inactive and inconclusive entries below differ from those in the screen. Calls follow the shape of the dose curve; as a rule, active = well fitted inhibition curve with a large enough effect; inconclusive = small, poorly fitted or top-dose-only effect, or another doubt; inactive = no such curve, though single readings can be large or run the other way. A potency beside an inconclusive call is a rough fit, not a confirmed value.
test: qHTS Assay for Inhibitors of Hepatitis C Virus (HCV); settings: Huh7.5.1 HCVcc-Cre (HCVcc is cell-culture hepatitis C virus) infection, luciferase reporter, 44 h; activity change, negative = inhibition: at 41.8 µM (top of the series)
Summary of the method: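 Seed cells (1,000/well) for 4 h; treat with compound and infect with HCVcc-Cre, moi about 0.5. Incubate 44 h, then detect luciferase activity.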
% is scaled to controls: 0 for no effect and ±100 for the full control effect; potency is read from the fitted curve at half-maximal effect; tags tell the direction and shape of the fitted curve.

Structure (SMILES) | Potency | activity change, negative = inhibition
N#CC1=C2N=C(N)c3ccccc3N2C2=C(C(=O)CCC2)C1c1ccc(F)cc1 (configuration not stated) | active: 12.6 µM | 
Cc1cc(C)n(-c2nc(NCCCN(C)C)c3c4c(sc3n2)CCCC4)n1 | inconclusive: 31.6 µM [inhibitor, single point] | 
CC(C)[C@@H](C(=O)N[C@@H](C(=O)O)c1ccccc1)N1C(=O)N2CCc3c([nH]c4ccccc34)[C@@]2(C)C1=O |  | inactive: -1.88%
CN1/C(=C/C=C(/C#N)C(N)=O)C(C)(C)c2ccccc21 | inconclusive: 1.12 µM [inhibitor, full curve] | 
CC(C)(C)c1csc(SCC(=O)Nc2ccc(Cl)cn2)n1 | inconclusive: 31.6 µM [inhibitor, single point] | 
CC(C)C(=O)Nc1ncc(Cc2ccc(Cl)cc2)s1 |  | inactive: -16.9%
Cc1cc(S(=O)(=O)NCC(c2ccc(F)cc2)N2CCN(C)CC2)ccc1F (configuration not stated) | inconclusive: 2.24 µM [inhibitor, full curve] | 
O=C(COc1ccc(/C=N/NC(=O)CSCc2ccc([N+](=O)[O-])cc2)cc1)NCc1ccco1 | inconclusive: 15.8 µM [inhibitor, single point] | 
COc1ccc(C(=O)NN=C2CCCC2)cc1 |  | inactive: 7.92%
C/C(N)=C(/C#N)C(=O)CSc1nnc(-c2ccc(OC(F)F)cc2)o1 | inconclusive: 31.6 µM [inhibitor, single point] | 
CC(=O)Oc1ccc(C(=O)Nc2cccc(C(=O)c3cccc(NC(=O)c4ccc(OC(C)=O)cc4)c3)c2)cc1 | inconclusive: 31.6 µM [inhibitor, single point] | 
COc1ccc(C2(c3ccc(OC)cc3)NC(=O)N(CC(=O)NC(C)C)C2=O)cc1 |  | inactive: 2.29%
c1ccc(Nc2nc(-c3ccccc3)ns2)cc1 | inconclusive: 10 µM [inhibitor, partial curve] | 
COc1cccc(C(=O)C2CCCN(Cc3ccc4nsnc4c3)C2)c1 (configuration not stated) |  | inactive: 1.15%
COc1ccc(CN2CCN(Cc3cccc(Oc4ccccc4)c3)CC2)c(OC)c1OC | inconclusive: 10 µM [inhibitor, single point] | 
COc1ccc(NC(=S)N(CCN2CCOCC2)C2CCN(C(C)=O)CC2)cc1Cl |  | inactive: 6.46%
CCCCCNC(=O)c1ccc2c(=O)n(CC3CCCO3)c(=S)[nH]c2c1 (configuration not stated) | inconclusive: 8.91 µM [inhibitor, partial curve] | 
CC(=O)c1ccccc1C(=O)N1CCCC(C(=O)c2ccc(C(F)(F)F)cc2)C1 (configuration not stated) |  | inactive: -53.8%
NC(=O)Cn1c(=O)n(CCCC(=O)NC2CCN(Cc3ccccc3)CC2)c(=O)c2ccccc21 |  | inactive: 8.04%
Cc1ccc(-c2noc(CSc3nnc(Cc4ccccc4)n3-c3ccc(Cl)cc3)n2)cc1 | inconclusive: 22.4 µM [inhibitor, single point] | 
COc1ccc2[nH]c3c(c2c1)CCN1C(=O)C(CC(=O)NC/C=C(\C)CCC=C(C)C)C[C@H](C(=O)N2CCCCC2)[C@@]31C (some centres not stated) |  | inactive: 2.24%
COc1ccc(S(=O)(=O)N2CCCCC2)cc1NC(=O)CSc1ncnc2ccccc12 | inconclusive: 10 µM [inhibitor, partial curve] | 
O=C(CCCNC(=O)c1ccc(Cl)cc1)Nc1cccc(F)c1 | inconclusive: 31.6 µM [inhibitor, single point] | 
COc1ccc(NC(=O)c2coc3ccccc23)cc1OC | inconclusive: 2.51 µM [inhibitor, full curve] | 

Structure (SMILES) | Potency | activity change, negative = inhibition
CSc1ccc(C(=S)N2CCCC2)cc1 |  | inactive: 21%
O=S(=O)(c1ccc(F)cc1)N1CCCC(CO)C1 (configuration not stated) | inconclusive: 5.62 µM [inhibitor, single point] | 
Cc1ccc(C(=O)O)cc1NCc1ccncc1 |  | inactive: 19%
COc1ccccc1-c1cc(C(=O)NC2CCCC2)no1 |  | inactive: -6.08%
O=C(Nc1ccccc1NS(=O)(=O)c1ccc(F)cc1)C1CCC1 |  | inactive: 6.88%
OC[C@@H](O)[C@@H](O[C@H]1O[C@H](CO)[C@@H](O)[C@H](O)[C@H]1O)[C@H](O)[C@@H](O)CO |  | inactive: 18.4%
COc1ccc(C(=O)NCCCCc2ccccc2)cc1 |  | inactive: -18.6%
CCn1cc(CN2CCCC(C(=O)c3ccc(-c4ccccc4)cc3)C2)cn1 (configuration not stated) | inconclusive: 7.94 µM [inhibitor, partial curve] | 
COc1ccc(CNC(=O)[C@H](C)N2C(=O)N3CCc4c([nH]c5ccccc45)[C@@]3(C)C2=O)cc1OC | active: 3.55 µM | 
CCOC(=O)C1(CC2CCCCO2)CCN(C2CCSCC2)CC1 (configuration not stated) |  | inactive: 2.81%
CSc1nccc(N2CCN(c3ccc(F)cc3)CC2)n1 | inconclusive: 11.2 µM [inhibitor, partial curve, poor fit] | 
Cc1cc(C)c(NC(=O)c2oc3ccccc3c2COc2ccccc2)c(C)c1 | inconclusive: 10 µM [inhibitor, single point] | 
Cc1cc(/C=N/N2CCN(C)CC2)c(C)n1-c1ccccc1F |  | inactive: 22.6%
CCCN(CC1CCCO1)C(=O)CCc1nnc(CCc2ccc(OC)cc2)o1 (configuration not stated) |  | inactive: -4.43%
O=C(NCc1ccccc1CN1CCCC1)c1cccc(N2CCCC2=O)c1 | inconclusive: 11.2 µM [inhibitor, single point] | 
Cc1ccc(NC(=O)CN(C)C(=O)c2cccnc2Nc2cccc(C(F)(F)F)c2)cc1 | inconclusive: 25.1 µM [inhibitor, single point] | 
CCC(=Nc1ccc(OC)cc1OC)c1c(O)n(C2CCCCC2)c(=O)[nH]c1=O | inconclusive: 12.6 µM [inhibitor, single point] | 
N=C(N)c1c(O)n(C2CCCCC2)c(=O)n(C2CCCCC2)c1=O | inconclusive: 8.91 µM [inhibitor, partial curve] | 
COc1ccc(-c2csc(-c3cccs3)n2)c(OC)c1 | inconclusive: 10 µM [inhibitor, partial curve] | 
COc1ccc2cc(S(=O)(=O)NCc3cccnc3)ccc2c1 | inconclusive: 8.91 µM [inhibitor, partial curve] | 
Cc1cc(NC(=O)CSCC(=O)Nc2cc(C(F)(F)F)ccc2N2CCCC2)no1 | inconclusive: 1.78 µM [inhibitor, full curve, poor fit] | 
NC[C@H](O)c1ccc(O)c(O)c1 |  | inactive: 1.36%
O=S(=O)(O)c1cc(O)c(N=Nc2ccc(O)cc2O)c2ccccc12 |  | inactive: -4.29%
O=c1cc(C(Cl)(Cl)Cl)oc2c1ccc1ccccc12 | inconclusive: 3.98 µM [inhibitor, full curve] | 

Structure (SMILES) | Potency | activity change, negative = inhibition
Cc1ccc(-c2csc(NC(=O)C[n+]3cc(-c4ccccc4)n4c3CCC4)n2)cc1 | active: 2 µM | 
Cc1cccc(N2CCN(C(=S)Nc3ccc4nc(N5CCOCC5)cc(C)c4c3)CC2C)c1 (configuration not stated) | inconclusive: 1.12 µM [inhibitor, partial curve] | 
Fc1ccc(-c2nnc(CN3CCC(c4nc5ccccc5s4)CC3)o2)cc1 | inconclusive: 5.01 µM [inhibitor, single point] and inconclusive: 31.6 µM [inhibitor, single point] | 
COc1ccccc1NS(=O)(=O)c1cc(N)ccc1N1CCCC1 | inconclusive: 14.1 µM [inhibitor, single point] | 
Cc1ccc(NC(=O)c2ccc(S(=O)(=O)N3CCCC3)cc2)cc1 |  | inactive: 13.1%
Cc1ccc(CNC(=O)CSc2nc3ccsc3c(=O)n2NC(=O)c2ccccc2)cc1 |  | inactive: -18.8%
COc1ccc(-n2nc(C(=O)NCC(=O)N3CCCC(C)C3)c3ccccc3c2=O)cc1Cl (configuration not stated) | inconclusive: 10 µM [inhibitor, partial curve] | 
COc1ccc(C2Nc3ccccc3C(=O)N2Cc2ccccc2)cc1 (configuration not stated) | inconclusive: 10 µM [inhibitor, partial curve] | 
O=C(NCCC1=CCCCC1)C1CCN(S(=O)(=O)c2ccccc2C(F)(F)F)CC1 |  | inactive: 0.79%
CCN1CCN(c2cc(N3CCN(C(=O)c4ccco4)CC3)c3c4c(onc24)-c2ccccc2C3=O)CC1 | inconclusive: 31.6 µM [inhibitor, single point] | 
CCc1ccc(NS(=O)(=O)c2cccc3nonc23)cc1 |  | inactive: 21.9%
COC(=O)C(Cc1c[nH]c2ccccc12)NC(=O)c1cc(-c2ccc(OC)c(OC)c2)oc1C (configuration not stated) | active: 10 µM | 
CCc1ccnc(NC(=O)NS(=O)(=O)c2ccc(C)cc2)c1 |  | inactive: 17.1%
O=C(COC(=O)c1cc([N+](=O)[O-])ccc1N1CCOCC1)Nc1c(Cl)cccc1Cl | inconclusive: 11.2 µM [inhibitor, partial curve, poor fit] | 
Cc1cccc(OCC(=O)Nc2ccncc2)c1C | inconclusive: 6.31 µM [inhibitor, full curve, poor fit] | 
O=C(O)C1CC(=O)N(Cc2ccccc2)C1 (configuration not stated) | inconclusive: 3.55 µM [inhibitor, full curve, poor fit] | 
CCOc1ccc(S(=O)(=O)n2c(C)nc3ccccc32)cc1 | inconclusive: 31.6 µM [inhibitor, single point] | 
COc1ccc(Cc2nc(C)cc(Cl)n2)cc1[N+](=O)[O-] |  | inactive: 6.85%
CCc1nnc(NC(=O)c2ccc(N3C(=O)CCC3=O)cc2)s1 | inconclusive: 5.01 µM [inhibitor, single point] | 
COCCn1c(N)c(N(Cc2ccccc2)C(=O)c2oc3ccccc3c2C)c(=O)[nH]c1=O |  | inactive: 13.9%
CC(Cc1cccs1)NC(=S)Nc1ccccc1 (configuration not stated) | inconclusive: 5.62 µM [inhibitor, single point] | 
Cc1cc2nc(C)n(CCCNC(=O)Nc3ccc(F)cc3)c2cc1C |  | inactive: -27.2%
CCOC(=O)c1c(S(=O)(=O)NCC(=O)N2CCN(c3ccc(OC)cc3)CC2)c(C)n(C)c1C | inconclusive: 2.82 µM [inhibitor, single point] | 
Cn1nc(-c2ccc(Cl)cc2)cc1NC(=O)CSCC(=O)O |  | inactive: -28.3%
